{"source": "the BET-seq Pho4 binding data (Le et al. 2018)", "note": "The other results are listed elsewhere or left out. Values were computed here from the reads of four pooled replicates and scatter widely."}
{"biological_target": "T1, Pho4 (S. cerevisiae) (UniProt P07270)", "T1 sequence": "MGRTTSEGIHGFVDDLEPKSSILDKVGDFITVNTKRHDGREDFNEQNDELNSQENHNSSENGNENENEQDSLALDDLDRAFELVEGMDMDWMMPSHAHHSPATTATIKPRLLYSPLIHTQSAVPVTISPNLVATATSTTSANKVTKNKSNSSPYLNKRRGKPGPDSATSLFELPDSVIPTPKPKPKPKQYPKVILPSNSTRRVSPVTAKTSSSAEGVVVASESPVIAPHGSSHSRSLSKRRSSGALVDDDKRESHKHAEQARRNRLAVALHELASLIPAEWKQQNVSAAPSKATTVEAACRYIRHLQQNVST", "experiment": "relative binding free energy (BET-seq); higher = weaker binding", "conditions": "reference: library average", "units": {"relative binding free energy": "kcal/mol"}}
{"sequence": "TTATACACGTGGCAGT", "relative binding free energy": -0.18}
{"sequence": "GTGCACACGTGGAGAG", "relative binding free energy": 0.12}
{"sequence": "TAGGGCACGTGAATAG", "relative binding free energy": 0.11}
{"sequence": "GAGTGCACGTGGTGTA", "relative binding free energy": 0.05}
{"sequence": "ATAGTCACGTGGGTTC", "relative binding free energy": 0.04}
{"sequence": "AGATTCACGTGGATGT", "relative binding free energy": 0.37}
{"sequence": "TGATTCACGTGCGGTA", "relative binding free energy": 0.32}
{"sequence": "TTGTGCACGTGAGCGA", "relative binding free energy": -0.01}
{"sequence": "ATGTTCACGTGCTGTA", "relative binding free energy": 0.14}
{"sequence": "CATGTCACGTGGTGTG", "relative binding free energy": -0.03}
{"sequence": "AAGATCACGTGATTAT", "relative binding free energy": 0.35}
{"sequence": "ACATGCACGTGTATGG", "relative binding free energy": -0.01}
{"sequence": "TTAAACACGTGCGGGG", "relative binding free energy": -0.17}
{"sequence": "GTGTTCACGTGAGGGC", "relative binding free energy": 0.53}
{"sequence": "TGGGTCACGTGTTTAA", "relative binding free energy": 0.22}
{"sequence": "ATGTGCACGTGATATA", "relative binding free energy": 0}
{"sequence": "ATAAGCACGTGTTTGT", "relative binding free energy": -0.16}
{"sequence": "TGTGTCACGTGAGAAT", "relative binding free energy": 0.32}
{"sequence": "GTCTTCACGTGGGCTT", "relative binding free energy": 0.23}
{"sequence": "CTTTTCACGTGAAAGT", "relative binding free energy": 0.34}
{"sequence": "TCGTGCACGTGGGCTA", "relative binding free energy": -0.23}
{"sequence": "CGGTGCACGTGGGAGC", "relative binding free energy": -0.08}
{"sequence": "TCATACACGTGTTCGT", "relative binding free energy": 0.08}
{"sequence": "AGATGCACGTGGCTTG", "relative binding free energy": -0.15}
{"sequence": "CAGTTCACGTGTGGAT", "relative binding free energy": 0.38}
{"sequence": "TGTCGCACGTGAGAGG", "relative binding free energy": 0.03}
{"sequence": "AGCTACACGTGGTTGG", "relative binding free energy": 0.08}
{"sequence": "TTGAGCACGTGGCGGA", "relative binding free energy": -0.22}
{"sequence": "TTTAACACGTGGAAGG", "relative binding free energy": 0.26}
{"sequence": "TACGGCACGTGGTGCG", "relative binding free energy": -0.26}
{"sequence": "ATTGGCACGTGTAAAG", "relative binding free energy": 0.03}
{"sequence": "CGGGTCACGTGTTGCT", "relative binding free energy": 0.09}
{"sequence": "GAGGACACGTGGTGAG", "relative binding free energy": 0.26}
{"sequence": "ACTGTCACGTGGTTTG", "relative binding free energy": 0.05}
{"sequence": "TAGATCACGTGATCTG", "relative binding free energy": 0.37}
{"sequence": "GGCGTCACGTGGAGGT", "relative binding free energy": -0.01}
{"sequence": "TGCGCCACGTGAAGGG", "relative binding free energy": 0.11}
{"sequence": "ATGCGCACGTGAAGGA", "relative binding free energy": 0.21}
{"sequence": "GGTAGCACGTGGCGGT", "relative binding free energy": -0.07}
{"sequence": "CTGGTCACGTGGTGCA", "relative binding free energy": -0.05}
{"sequence": "GCGTGCACGTGAGTTG", "relative binding free energy": 0.36}
{"sequence": "TAGGTCACGTGCTGTT", "relative binding free energy": 0.14}
{"sequence": "AAGAACACGTGTGTTA", "relative binding free energy": 0.15}
{"sequence": "GGACGCACGTGGTTAG", "relative binding free energy": -0.23}
{"sequence": "TAGGTCACGTGGTACG", "relative binding free energy": 0.06}
{"sequence": "ATTCACACGTGGTGAG", "relative binding free energy": 0.08}
{"sequence": "CGTGCCACGTGTGGTA", "relative binding free energy": -0.02}
{"sequence": "TGGCACACGTGGTGTA", "relative binding free energy": -0.19}
{"sequence": "TGTAACACGTGAGTTG", "relative binding free energy": 0.29}
{"sequence": "GTAGTCACGTGGGGGT", "relative binding free energy": 0.04}
{"sequence": "GAATGCACGTGCTTGG", "relative binding free energy": -0.02}
{"sequence": "TTGGTCACGTGGTAAG", "relative binding free energy": 0.15}
{"sequence": "TTTGTCACGTGAGGCT", "relative binding free energy": 0.36}
{"sequence": "TTGTCCACGTGGTAGT", "relative binding free energy": -0.16}
{"sequence": "CTGTTCACGTGCTTAG", "relative binding free energy": 0.31}
{"sequence": "TTGAGCACGTGAAGTG", "relative binding free energy": 0.14}
{"sequence": "AGTCTCACGTGACGTG", "relative binding free energy": 0.42}
{"sequence": "GTGGTCACGTGGATAA", "relative binding free energy": 0.24}
{"sequence": "GAGTTCACGTGTGTCG", "relative binding free energy": 0.24}
{"sequence": "AGAAGCACGTGTATGT", "relative binding free energy": -0.01}
{"sequence": "GGGGTCACGTGTTTGC", "relative binding free energy": 0.09}
{"sequence": "TAATTCACGTGTATGC", "relative binding free energy": 0.27}
{"sequence": "TTGTTCACGTGCTTAG", "relative binding free energy": 0.1}
{"sequence": "TCGTCCACGTGGTGTT", "relative binding free energy": -0.13}
{"sequence": "ATACTCACGTGGAGGT", "relative binding free energy": 0.11}
{"sequence": "GTGCGCACGTGGTGGT", "relative binding free energy": -0.12}
{"sequence": "AGATGCACGTGGGGTG", "relative binding free energy": -0.11}
{"sequence": "CAGGTCACGTGGACAG", "relative binding free energy": 0.27}
{"sequence": "GTTGACACGTGGTGAT", "relative binding free energy": -0.05}
{"sequence": "TGATACACGTGGTATG", "relative binding free energy": -0.09}
{"sequence": "GCGAGCACGTGGTTTG", "relative binding free energy": -0.13}
{"sequence": "ATGGTCACGTGTACGA", "relative binding free energy": 0.15}
{"sequence": "TCGTGCACGTGAGTAG", "relative binding free energy": 0.25}
{"sequence": "CTTTTCACGTGGATGG", "relative binding free energy": 0.24}
{"sequence": "GTGGTCACGTGTCGAT", "relative binding free energy": 0.22}
{"sequence": "AATAGCACGTGAGTGA", "relative binding free energy": 0.19}
{"sequence": "GGATCCACGTGCGGTT", "relative binding free energy": 0.19}
{"sequence": "AGCGTCACGTGGCTGT", "relative binding free energy": 0.01}
{"sequence": "TTGATCACGTGCTGTG", "relative binding free energy": 0.07}
{"sequence": "TGTTGCACGTGATAAT", "relative binding free energy": 0.1}
{"sequence": "TATTGCACGTGAGTTG", "relative binding free energy": 0.26}
{"sequence": "AGAGTCACGTGACTTT", "relative binding free energy": 0.36}
{"sequence": "TTAGTCACGTGAGGGA", "relative binding free energy": 0.32}
{"sequence": "CCGGGCACGTGGAGGG", "relative binding free energy": -0.18}
{"sequence": "AGCGTCACGTGTGGCT", "relative binding free energy": 0.03}
{"sequence": "TAATTCACGTGATGAG", "relative binding free energy": 0.33}
{"sequence": "AGGTTCACGTGATGGT", "relative binding free energy": 0.36}
{"sequence": "GTAGGCACGTGGTAGA", "relative binding free energy": -0.18}
{"sequence": "GTTGTCACGTGTAAGA", "relative binding free energy": 0.3}
{"sequence": "GTGTGCACGTGTAATA", "relative binding free energy": 0}
{"sequence": "ATTGACACGTGGGGCG", "relative binding free energy": -0.12}
{"sequence": "CGAATCACGTGAGTGG", "relative binding free energy": 0.24}
{"sequence": "AGTTTCACGTGTGTCG", "relative binding free energy": 0.2}
{"sequence": "CATTGCACGTGGGAAG", "relative binding free energy": 0.02}
{"sequence": "GGGCGCACGTGAGCGG", "relative binding free energy": 0}
{"sequence": "TTGCACACGTGGGTTG", "relative binding free energy": -0.25}
{"sequence": "TTGTTCACGTGGATGC", "relative binding free energy": 0.24}
{"sequence": "TTTAGCACGTGCGAGA", "relative binding free energy": -0.03}
{"sequence": "TTGGCCACGTGTGGGT", "relative binding free energy": -0.05}
{"sequence": "TCATGCACGTGTTGCT", "relative binding free energy": 0.03}
{"sequence": "ATTTCCACGTGAAGGG", "relative binding free energy": 0.23}
{"sequence": "TGAATCACGTGAAGGG", "relative binding free energy": 0.16}
{"sequence": "CGTATCACGTGAGCGG", "relative binding free energy": 0.22}
{"sequence": "TATACCACGTGGGATT", "relative binding free energy": -0.03}
{"sequence": "AGGCACACGTGTGTTA", "relative binding free energy": 0.09}
{"sequence": "TTCGACACGTGTATTG", "relative binding free energy": 0.17}
{"sequence": "GGTGGCACGTGCATGG", "relative binding free energy": -0.14}
{"sequence": "TATGGCACGTGGTCTT", "relative binding free energy": -0.18}
{"sequence": "TATTTCACGTGCGTCG", "relative binding free energy": 0.23}
{"sequence": "CAAGTCACGTGGAGAG", "relative binding free energy": 0.2}
{"sequence": "GGAGTCACGTGGGGGC", "relative binding free energy": 0.02}
{"sequence": "TTGGACACGTGTTGGT", "relative binding free energy": 0.11}
{"sequence": "AGGTGCACGTGCTTTT", "relative binding free energy": -0.22}
{"sequence": "GGTTACACGTGAGGTC", "relative binding free energy": 0.33}
{"sequence": "TTGGACACGTGTTGGG", "relative binding free energy": 0.1}
